Data reported in the supplement of paper PMC3334620.
In all, about 33,000 sequences were measured (“E-score (-0.5 to 0.5)”: median about -0.032, highest 2% from about 0.36 on). The list shows a part of the results.

Target: T1, Sko1 (UniProt Q02100)
T1 sequence: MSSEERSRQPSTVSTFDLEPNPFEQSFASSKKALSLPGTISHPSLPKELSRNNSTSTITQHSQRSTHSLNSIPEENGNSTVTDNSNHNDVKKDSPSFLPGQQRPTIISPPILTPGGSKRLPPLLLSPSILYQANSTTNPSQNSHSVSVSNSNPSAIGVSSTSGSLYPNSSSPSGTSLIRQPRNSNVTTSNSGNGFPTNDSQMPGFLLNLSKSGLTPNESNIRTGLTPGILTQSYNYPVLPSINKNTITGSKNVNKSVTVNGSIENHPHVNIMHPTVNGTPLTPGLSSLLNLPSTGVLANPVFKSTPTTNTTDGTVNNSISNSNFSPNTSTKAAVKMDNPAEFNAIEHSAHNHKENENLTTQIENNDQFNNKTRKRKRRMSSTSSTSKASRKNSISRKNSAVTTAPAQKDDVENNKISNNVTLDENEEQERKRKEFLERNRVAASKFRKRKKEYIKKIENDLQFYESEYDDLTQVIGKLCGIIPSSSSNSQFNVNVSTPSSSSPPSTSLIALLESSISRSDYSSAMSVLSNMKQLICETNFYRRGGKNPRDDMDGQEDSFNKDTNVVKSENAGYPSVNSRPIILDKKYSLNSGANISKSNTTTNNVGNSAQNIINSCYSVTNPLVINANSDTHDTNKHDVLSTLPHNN
Experiment: PBM E-score (8-mer binding enrichment) (E-score (-0.5 to 0.5)); higher = stronger / more preferred TF binding; most listed sequences are background and not binding sites
Details: protein concentration: 200 nM; construct: GST-full length
Protocol: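 Universal 'all 10-mer' protein binding microarrays (Agilent AMADID 015681) probed with GST-tagged S. cerevisiae TFs (full-length or DBD) made by in vitro transcription/translation (PURExpress), about 100-200 nM. Bound TF was detected with fluorescent anti-GST. Each ungapped 8-mer (which stands for itself and its reverse complement) is scored by the PBM enrichment score (E-score), a modified Wilcoxon-Mann-Whitney statistic from -0.5 to +0.5, computed with the Universal PBM Analysis Suite. Scale: above 0.35 generally sequence-specific binding.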

Sequence | PBM E-score
AATAACCT | 0.078
ACATTCAA | 0.0223
AGGCATAC | -0.00032
GAGTGTCC | -0.0295
AGCTTACC | -0.212
GAGGTGAC | 0.256
CCATCATA | 0.0672
ACGTCACG | 0.486
CGGAATGC | -0.272
AATGGCCC | -0.166
AAAGCAGT | 0.0167
GAGACAAC | -0.139
CTTATCTC | 0.0657
AACGAGGG | -0.137
CAGACCTG | -0.251
ACTCAGAA | 0.0395
AGGTTAAT | 0.13
CCGGGACA | -0.201
GCTGTACC | -0.221
AAGGTGCG | -0.172
AGGATTAG | -0.0447
CGCACGCC | -0.038
ACTCTCTG | -0.135
ATTTGTTC | 0.309
GGTCGTAA | 0.249

Sequence | PBM E-score
AACTCTTA | 0.0851
GGCCCGAC | -0.242
GACATCGA | -0.0197
ATCGAGGA | -0.0975
CGCACCGC | -0.0671
ATGTATTA | 0.206
AAGCTACC | -0.034
TACTCGCA | 0.13
ACACTCAA | 0.169
GTTACGGA | 0.0875
ACCTGCCC | -0.208
AATGCCAA | -0.125
AACGGTCC | -0.292
AAACAAGC | -0.123
AGCACCTG | -0.212
GCTATACC | -0.171
CGCTCACC | -0.131
ATCAGCAA | -0.149
AAAGACCC | -0.152
ATGCTTGA | 0.191
ATGCGCGA | -0.0192
TCGATCCA | -0.0219
ACTGGAGA | -0.15
ATCACAAG | 0.0431
AGAGGACT | -0.223

Sequence | PBM E-score
AGGTTTAC | 0.017
CACGACAA | 0.0437
CTCCCCTC | -0.325
AAGTACAA | 0.0267
ATCCGATA | 0.00167
GGGTATCA | -0.0528
CTGAGAAA | -0.075
CTCTTTTC | -0.123
CTCCCGGA | -0.318
AAGATGCG | -0.0622
GACGTGTA | 0.374
AACACGAA | 0.187
GAAGGCTA | -0.123
CTATGAAC | 0.0471
AACACCAC | -0.0954
GCTGAAAA | 0.0234
CGGATCCA | -0.0924
AGTAGTCA | 0.0613
ACAAACGG | -0.063
AGAGCTCC | -0.337
GTAGGCTA | 0.0728
ATACAACA | 0.197
ACTCACTA | 0.127
ATCGGCAG | -0.217
CTTTAGCC | 0.0219

Sequence | PBM E-score
GGCCCCTA | -0.188
CTGTGAAC | -0.157
CGTTCGTC | 0.222
ATAGTGGA | 0.0138
CATCGTGA | 0.0986
ATCAATAC | 0.231
GAGATGCC | 0.0241
GACAACGA | -0.00553
CCCTTATC | 0.00875
TAGGTCGA | -0.0668
ATGAAAAA | 0.0752
AAGGACGC | -0.0793
AGTTTCAG | -0.133
ACCGGTCT | -0.201
ACGGCTAC | 0.105
CAGTTAAG | -0.0203
CCGGACCC | -0.151
AAGAGTAG | -0.018
ACATTCGC | -0.0797
AAGCGCGT | 0.12
CGTGAAGC | 0.134
TGAGGAAA | 0.0703
ACCAACGT | 0.334
AAGTGGGT | -0.0224
AGCCTAAA | -0.0192

Sequence | PBM E-score
ATCAGGTA | 0.0175
CCCTGTCG | -0.144
ATAGTGAG | -0.0525
AAGTGGAC | -0.0558
CACATGCA | -0.0961
AAGGGGAC | -0.0793
ACATGCGC | 0.159
AATAAATT | 0.209
TGCTATAA | -0.0988
GTAATCTA | 0.394
CACCATGG | -0.233
ACGCGCTC | 0.0376
ATCTACAA | 0.134
TGAAGTAA | 0.0781
AAAAGATC | 0.0791
ATCAGGAG | -0.204
AGCGCCAC | -0.177
ACTTAACC | -0.0102
GAGCTCCC | -0.21
CGGCGACC | -0.219
AGCTTCAC | 0.128
CTTATTCC | -0.0659
TACCTGGA | -0.0553
ATACAGAC | 0.0894
ATAGAGAC | 0.0383

Sequence | PBM E-score
GAGATAAC | 0.139
GTAGATCA | 0.199
CGAGTAGC | -0.0163
GTAAGTAA | 0.156
AAGCACGT | 0.389
CGGTCATA | 0.0986
GCTACTAC | 0.223
ATTTGGAC | 0.0421
TAGCAAGA | 0.135
GCAATCAA | 0.0627
ATTACCCC | -0.0232
CCGCGACA | -0.0282
CTAAATAA | 0.178
GGTGAGGA | -0.132
TACAATGA | 0.133
AGGATCAT | -0.0991
AATCGCCC | -0.183
GCGGGGTA | -0.162
AGCCCGGG | -0.435
GTCCTGAA | -0.0708
AATCCAGA | 0.0558
ATGCGGCG | -0.182
CAGAAGAA | 0.0487
AACTCGTG | 0.0165
AAACTGTT | 0.0677

Sequence | PBM E-score
AACATTCT | 0.147
CTGGACAC | -0.319
AGCAACTG | 0.045
TCGGACGA | 0.0496
ACTAAAAT | 0.174
CTATTCCA | 0.104
ATAGGGAA | -0.133
GGCACTCA | -0.321
ATGGCTCG | -0.0717
CAGCATGC | -0.0382
CTCACTCA | -0.158
TGCGCGCA | 0.0711
ATCCTTCC | -0.244
CGACAAGA | -0.0778
CACCGCTG | -0.271
AGAACTAC | 0.0945
GAAGCCAA | -0.108
ATTAATGC | 0.0872
CGCAAAGA | 0.0514
ATGGATCG | -0.0172
GCTGCTCA | -0.0507
CACAAGAG | -0.0994
GAATGCAC | 0.0579
ACCCGCTC | -0.364
TAAGATTA | 0.0917

Sequence | PBM E-score
CTCGACGC | 0.123
CCATCTAC | -0.0274
CCAGATGG | -0.174
CGGAAATC | -0.0803
CTGTACAC | 0.0671
ACGTTCAC | 0.28
ACTATAGC | -0.228
ACCACCGC | -0.218
CAATTACA | 0.167
CATAGAGA | 0.0951
CCGGACAG | -0.137
CCCGCCTC | -0.248
CCCGGAAG | -0.344
AATGGCAA | 0.0404
AGACGCTA | -0.151
ATATTAGC | 0.18
ATAGCGGC | -0.119
AGGTCACG | 0.0716
GGTAGGAC | -0.245
CCTAGCAC | -0.191
AATGACAC | 0.258
TAGAGATA | 0.099
CCGACGTC | 0.309
CTGGGCAC | -0.169
CATACTAA | 0.091

Sequence | PBM E-score
CTATTCTC | -0.16
ACTGATAA | 0.0569
ACTCCTCT | -0.174
ATCTGTCC | -0.319
CGGCTTAC | -0.0277
AAGGAAAT | 0.0765
CGCAGCAG | -0.122
GTGCCGAA | 0.0597
AGGCAGGA | -0.184
CGAGAGTC | -0.189
AGTTGTAC | -0.116
AAGAACAG | 0.0348
CCATGGAG | -0.266
CAAAGAAG | -0.00535
GACAGCAC | -0.0572
AGCGGGTC | -0.376
GACAGAAA | 0.135
GCACATTA | 0.111
AACTCGCA | 0.053
